Where “and” joins values, the source holds several entries; their conditions need not be identical. Equal values may be shown once. In all, about 94,000 compounds went through this assay and about 6,200 (6.6%) were called active. This list was built around the results that the source calls inconclusive (neither active nor inactive); the mix of calls is not that of the screen. The call rests on the fitted dose curve; in most records, active means well fitted inhibition curve with a large enough effect; inconclusive means small, poorly fitted or top-dose-only effect; inactive means flat fitted curve, though single readings scatter. Where the call is inconclusive, the potency comes from a doubtful curve fit.
Assay: Cytotoxic Profiling in HEK 293 Cell Line of Diverse Libraries Using Quantitative High-Throughput Screening; further: nearly all actives have a fitted effect of over 60% in size
Conditions: HEK 293 viability, ATP luminescence (CellTiter-Glo), 48-72 h; series mostly up to 115 µM
How it was run: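 HEK 293 cells at 250 cells/well were exposed to compounds by pintool transfer for 48 or 72 hr at 37 degree Celsius, 5% CO2. Viability was read as ATP-coupled luminescence with CellTiter-Glo after 10 min at room temperature.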
Potency means the concentration at half of the fitted maximal effect; tags describe the fitted curve by direction and shape.

Structure (SMILES) | Potency
CN1C[C@H](C(=O)NCCOc2ccccc2)C[C@H]1c1cccc(C(F)(F)F)c1 | active: 100 µM
CCOc1ccc2c(n1)CCN(C(=O)CC1CCCC1)C2 | inconclusive: 79.4 µM [inhibitor, partial curve, poor fit]
CCOCC1(C)COc2ccc(C(=O)Nc3ccc(F)c(Cl)c3)cc2N1 (stereo not given) | active: 39.8 µM
CCS(=O)(=O)Nc1ccc(C2(C(=O)NC(C)c3ccccc3)CCCCC2)cc1 (stereo not given) | inconclusive: 31.6 µM [inhibitor, full curve]
Cc1ccc(-c2nnc([C@H]3CCN(Cc4ccc(S(C)(=O)=O)cc4)C3)o2)cc1 | inconclusive: 70.8 µM [inhibitor, partial curve, poor fit]
COc1ccc(-c2cc3c(=O)n(CCNC(=O)c4cc(F)cc(F)c4)ccn3n2)cc1 | inconclusive: 50.1 µM [inhibitor, partial curve, poor fit]
Cc1ccc(C2Cn3nnc(C(=O)N4CCN(C(=O)Cc5ccc(Cl)cc5)CC4)c3CO2)cc1 (stereo not given) | inactive
O=C(NCc1cc(F)cc(F)c1)C1(c2ccc(Cl)cc2)CCOCC1 | inconclusive: 56.2 µM [inhibitor, partial curve, poor fit]
COc1ccc(C(=O)N[C@@H]2c3ccccc3C3(CCNCC3)[C@H]2OC)cc1C | inconclusive: 63.1 µM [inhibitor, partial curve, poor fit]
Cc1ccc(CN2CCCCCNC(=O)CC2c2ccccc2)s1 (stereo not given) | inconclusive: 35.5 µM [inhibitor, partial curve, poor fit]
Cc1ccc(-c2cc(C(=O)NC3CC3)nn3cnnc23)cc1 | inconclusive: 39.8 µM [inhibitor, full curve, poor fit]
CC(=O)N1CCC(C(=O)N2CCC3(CC2)NC(=O)N(c2ccc(F)cc2)N3)CC1 | inconclusive: 12.6 µM [inhibitor, full curve, poor fit]
O=C1c2c(nc(COc3ccc4c(c3)OCO4)n2Cc2ccccc2)NCCN1CC1CCOCC1 | inconclusive: 79.4 µM [inhibitor, partial curve]
COc1ccc(-c2ccc3ncc(Nc4ccnc(N5CCOCC5)c4)n3n2)cn1 | active: 28.2 µM
CCOCC(=O)N1CCN(c2nnnn2-c2ccccc2)CC(O)C1 (stereo not given) | inactive
Cc1cccc(OCC2(CNCc3cnn(C)c3)C[C@@H](O)[C@@H](O)C2)n1 (stereo not given in full) | inactive
COc1ccc(CC(=O)N2CCc3nc(-c4cccnc4)[nH]c3C2)cc1 | inconclusive: 89.1 µM [inhibitor, single point]
COc1ccc(F)cc1-c1ccc(CN2CCC(NC(=O)c3cccc(Cl)c3)C2)cc1 (stereo not given) | active: 22.4 µM
CCc1ccc(NC(=O)N2CCCC(c3noc(COc4ccccc4)n3)C2)cc1 (stereo not given) | inconclusive: 79.4 µM [inhibitor, partial curve, poor fit]
CC(C)OCCCNC(=O)c1cc2cn(C(C)C)cc2s1 | inactive
Cc1cc(C(=O)N2CCC(N3C[C@H](O)C[C@H]3C(=O)NC3CCCCC3)CC2)nn1C | inconclusive: 89.1 µM [inhibitor, single point]
Cc1ccc(-n2c(C3CCN(C(=O)COc4ccc(Cl)cc4C)CC3)n[nH]c2=O)cc1 | inconclusive: 50.1 µM [inhibitor, partial curve, poor fit]
COCCNC(=O)c1nc2cccnc2n(CCOC)c1=O | inactive
O=C(NC1C[C@H]2CC[C@@H](C1)N2C(=O)CCc1nc2ccccc2s1)c1ccncc1 (stereo not given in full) | inactive

Structure (SMILES) | Potency
CCC(C)NC(=O)C1CCCN1C(=O)c1cccc(-c2cccnc2)c1 (stereo not given) | inactive
Cc1noc([C@@H]2CN(Cc3cc(F)ccc3F)C[C@H]2CO)n1 | inactive
COc1cccc(-c2ncc3c(n2)OCCN(c2cccc(C(F)(F)F)c2)C3=O)c1 | inconclusive: 28.2 µM [inhibitor, full curve, poor fit]
CC(C)CN(C1CCN(C)CC1)C1CN(C(=O)COCc2ccccc2)C1 | inactive
O=C(c1cnccn1)N1CC(F)(F)C[C@H]1c1nc(C2CC2)no1 | inactive
CN(C)c1ccc(C(=O)N2CCCN(c3cc(-c4ccc(F)cc4)[nH]n3)CC2)cc1 | inconclusive: 50.1 µM [inhibitor, partial curve, poor fit]
Cc1noc(C)c1[S+](=O)([O-])N1CCN(C(=O)c2nc3cccnc3n(CC(C)C)c2=O)CC1 | inactive
O=C(NC1CCCN(c2ccnc3ccnn23)C1)c1ccc2c(c1)OCO2 (stereo not given) | active: 35.5 µM
O=C(Cc1cccc(F)c1)N1CCC[C@H]1c1nc(-c2ccc(F)cc2)no1 | inconclusive: 50.1 µM [inhibitor, partial curve, poor fit]
C=CCOc1cccc(-c2nc(C(=O)NCc3cccc(F)c3)cs2)c1 | inconclusive: 89.1 µM [inhibitor, single point]
C=CCN1C[C@H]2COc3ccc(C)cc3[C@H]2N(C(=O)c2cccc(OC)c2)CCC1=O | inconclusive: 89.1 µM [inhibitor, single point]
O=S(=O)(O)c1ccc(-c2ncc[nH]2)cc1 | inactive
CN1Cc2cccn2CC1CNC(=O)c1cccs1 (stereo not given) | inactive
COc1ccc(-c2ccccc2C(=O)NCC(C)C)nn1 | inactive
CCCN(CC1CCOC1)C(=O)NC(C)C (stereo not given) | inactive
O=C(c1ccc(CC2CCN(C(=O)c3ccccn3)CC2)cc1)N1CCOCC1 | inactive
CCN1c2cc(C(=O)Nc3ccc(C)c(C)c3)ccc2C(=O)N2CCCCC21 (stereo not given) | active: 28.2 µM
Cc1noc(C)c1-c1cc2cc(C(C)C)oc2c(NCCc2ccccn2)n1 | inconclusive: 44.7 µM [inhibitor, partial curve, poor fit]
CC(=O)N1CCN(C[C@@H]2C=C(C)[C@H](Cc3nnc(-c4ccccc4F)o3)C[C@H]2C(C)C)CC1 | inconclusive: 50.1 µM [inhibitor, partial curve, poor fit]
Cc1ccccc1N(C)C1CN(Cc2ccc(C#N)cc2)C1 | inconclusive: 70.8 µM [inhibitor, partial curve, poor fit]
COc1ccc(CC2CCOC3(CCN(C(=O)NCC(C)C)CC3)C2)cc1 (stereo not given) | active: 39.8 µM
CCc1ccc(S(=O)(=O)N2CCC(n3cnnc3C)CC2)cc1 | inactive
O=c1[nH]c(C2CCCN(Cc3cccc(-c4cccnc4)c3)C2)nc2ccc(F)cc12 (stereo not given) | inconclusive: 10 µM [inhibitor, full curve, poor fit]
COc1ccc(OC)c(S(=O)(=O)N2CCCC2c2nncn2Cc2ccncc2)c1 (stereo not given) | inactive

Structure (SMILES) | Potency
CCOCc1nc(C2CCCN2C(=O)Nc2ccsc2C(=O)OC)no1 (stereo not given) | inconclusive: 89.1 µM [inhibitor, single point]
COc1ccc(CN2C(=O)CO[C@H]3CN(Cc4ccccc4)C[C@H]32)cc1 | inconclusive: 50.1 µM [inhibitor, partial curve, poor fit]
O=C(c1ccc2c(c1)OCO2)N1CCCC1c1nnc2n1CCNC2 (stereo not given) | inactive
Cc1cccc(C(=O)N2CCCN(Cc3ccncc3)C(c3ccccc3)CC(=O)NCC2)c1 (stereo not given) | inactive
O=C(CNC(=O)c1ccc(-c2cnc3ccccc3c2)cc1)NCCC1CCCCC1 | inactive
CCc1ccc(C(=O)N2CCC3(CC2)OCC(C(=O)NC2CC2)N3C(=O)c2cccc(C)c2)cc1 (stereo not given) | inactive
Cc1ccc(NC(=O)N2CCc3c(C(=O)NCc4ccco4)cccc32)cc1 | inconclusive: 44.7 µM [inhibitor, partial curve, poor fit]
CN(C)C(=O)c1ccnc(-c2nnc3ccc(NC4CCCCC4)nn23)c1 | inactive
CCO[C@@H]1COCC[C@H]1NC(=O)c1ccoc1COc1ccc(C)cc1 | inconclusive: 28.2 µM [inhibitor, partial curve, poor fit]
COCCNC(=O)C1CCCCN1Cc1ccc(-c2ccccc2OC)cc1 (stereo not given) | active: 44.7 µM and inconclusive: 50.1 µM [inhibitor, partial curve, poor fit]
COC(=O)NC1CCCN(Cc2cccc(-c3ccc(C)c(Cl)c3)c2)C1 (stereo not given) | active: 44.7 µM
Cc1ccccc1C(=O)Nc1ccc([C@H]2OCC(=O)N(CC(C)C)[C@@H]2CO)cc1 | inconclusive: 50.1 µM [inhibitor, full curve]
Cc1nc2cccnc2n1CC1CCCN(S(=O)(=O)c2ccc(F)cc2F)C1 (stereo not given) | inconclusive: 39.8 µM [inhibitor, partial curve, poor fit]
O=C(O)c1ccc(-c2cccc(C(F)(F)F)c2)cc1 | inactive
CCCn1nc(C)cc1CN(C)C(=O)Cn1nc2n(c1=O)CCC(N)CC2 (stereo not given) | inactive
Cc1cccc(OCC2(CNC(=O)N3CCOCC3)C[C@@H](O)[C@@H](O)C2)n1 (stereo not given in full) | inconclusive: 56.2 µM [inhibitor, single point]
Cc1cccc([S+](=O)([O-])N2CCC3(CC2)OCCN(c2cccnc2)C3=O)c1 | inactive
O=C1c2cnc(-c3ccsc3)nc2OCCN1c1cccc(C(F)(F)F)c1 | active: 100 µM
Cn1c([C@H]2CCN(Cc3ccc4c(c3)OCO4)C2)nc2ccccc21 | inconclusive: 112 µM [inhibitor, partial curve, poor fit]
O=C1CC2(CCN(C(=O)C3CCN(C(=O)Cc4cccc(Cl)c4)CC3)CC2)Oc2ccccc2N1 | active: 39.8 µM
Cc1noc(C)c1-c1cc2cc(C(C)C)oc2c(-c2cccc(CO)c2)n1 | active: 70.8 µM
O=C1CC(c2ccccc2)N(S(=O)(=O)c2cccc3cccnc23)CCCCCCN1 (stereo not given) | inconclusive: 79.4 µM [inhibitor, partial curve, poor fit]
